Here are results for 59 compounds from PubChem BioAssay AID1159614 (National Center for Advancing Translational Sciences (NCATS), 2016).

Molecules are shown by their SMILES. About 65 (0.1%) of roughly 45,000 compounds were called active. Calls come from the whole dose curve; as a rule, active = well fitted activation curve with a large enough effect; inconclusive = small, poorly fitted or top-dose-only effect; inactive = no such curve, though single readings can be large or run the other way. The list shows a part of the results.

The target of this experiment is Galactocerebrosidase (Homo sapiens) (UniProt P54803). The experiment can be described thus: A Novel Cell-Based Assay to Identify Small Molecules for B -Galactocerebrosidase. Note: 0% is about no effect; nearly all actives have a fitted effect of over 65% in size. The settings on record: 145M-Twi-hGALC-G270D cells (Twitcher mouse brain line with human GALC G270D), HMU-beta-Gal fluorescence, 48 h; series mostly up to 57.5 µM; activation: at the top concentration. Put shortly: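 Fluorogenic HMU-b-Gal hydrolysis (0.1 mM final, pH 5.2 citrate-phosphate with 1 mg/mL sodium taurocholate; carbonate stop buffer) measures mutant GALC activity after compound treatment of live 145M-Twi Twitcher brain cells stably carrying human GALC-G270D, with wild-type GALC line alongside; activation sought.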
Sequence of UniProt P54803 (P54803 whole entry, looked up): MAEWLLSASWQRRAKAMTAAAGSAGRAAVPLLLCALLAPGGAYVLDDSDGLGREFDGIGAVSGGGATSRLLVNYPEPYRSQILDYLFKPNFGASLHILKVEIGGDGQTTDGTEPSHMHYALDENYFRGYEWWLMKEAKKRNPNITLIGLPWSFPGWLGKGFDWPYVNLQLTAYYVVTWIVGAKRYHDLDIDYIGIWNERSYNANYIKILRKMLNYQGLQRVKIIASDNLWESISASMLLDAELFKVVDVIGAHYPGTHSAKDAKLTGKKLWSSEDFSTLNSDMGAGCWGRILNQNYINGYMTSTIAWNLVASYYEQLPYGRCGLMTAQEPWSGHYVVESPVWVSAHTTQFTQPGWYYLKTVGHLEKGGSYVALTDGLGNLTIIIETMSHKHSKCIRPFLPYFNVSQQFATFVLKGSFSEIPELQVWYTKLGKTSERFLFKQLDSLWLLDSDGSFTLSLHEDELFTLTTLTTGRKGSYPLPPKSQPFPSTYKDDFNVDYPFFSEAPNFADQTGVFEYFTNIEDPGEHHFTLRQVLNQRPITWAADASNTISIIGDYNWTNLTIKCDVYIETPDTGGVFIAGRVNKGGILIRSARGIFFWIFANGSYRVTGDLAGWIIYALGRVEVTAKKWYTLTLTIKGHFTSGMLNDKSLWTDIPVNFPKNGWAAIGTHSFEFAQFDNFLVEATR
Regarding `Cc1ccc(OCC(O)Cn2c(=N)n(CCN3CCCCC3)c3ccccc32)cc1` (centres undefined), the “activation” value is inactive: -15.2%.

As to `Cc1ccc(-n2ncc(C(=O)NCCCN3CCCCC3)c2C2CCN(C(=O)OC(C)(C)C)CC2)cc1`, the “activation” value was inactive: 0.609%.

`COc1cccc(OC)c1C(=O)Nc1ccc(S(=O)(=O)Nc2nccc(C)n2)cc1`: the “activation” value was inactive: -4.92%.

In the case of `CCOc1ccc(CN2CCN(c3ncnc4sc5c(c34)CC(C)CC5)CC2)cc1` (centres undefined), the “activation” value is inactive: -7.77%.

Turning to `COc1ccc(Cl)cc1NC(=O)c1ccc2c(c1)CCCN2S(C)(=O)=O`, the “activation” value was inactive: -12%.

Turning to `COc1ccccc1C(=O)Nc1nnc(S(=O)(=O)N(C)c2ccc(Cl)cc2)s1`, the “activation” value is inactive: -37.6%.

In the case of `O=C(O)c1cc(-c2ccc(C(F)(F)F)cc2)nc2n[nH]c(-c3ccccc3)c12`, the “activation” value was inactive: -16.6%.

Consider `CC(=O)c1ccc(NC(=O)Cn2cc3c(n2)CCCC3)cc1`, for which the “activation” value is inactive: -12.3%.

With `CCc1ccc(S(=O)(=O)c2cn(CC)c3cc(N4CCOCC4)c(F)cc3c2=O)cc1`, the “activation” value was inactive: -11.8%.

Consider `O=C(NCCSc1c(-c2ccccc2)[nH]c2ccccc12)c1ccc(S(=O)(=O)N2CCOCC2)cc1`, for which the “activation” value is inactive: -4.42%.

Turning to `Cc1nc(-c2ccccc2)sc1CCNS(=O)(=O)c1ccccc1`, the “activation” value is inactive: -35.8%.

On to `Cc1ccc(CNC(=O)C2CCN(S(=O)(=O)c3ccc4c(c3)CCCN4C(=O)C3CCC3)CC2)cc1`, for which the “activation” value was inactive: -3.76%.

Consider `CCOc1ccc2c(c1)c(=O)c(S(=O)(=O)c1ccccc1)cn2CC(=O)Nc1ccccc1OC`, for which the “activation” value is inactive: -3.77%.

Consider `Cc1ccccc1NC(=O)CN1C(=O)C(C)(C)c2ccccc21`, for which the “activation” value was inactive: -12%.

For `COc1cccc(NC(=O)c2cc3c(=O)n(C)c4ccccc4c3n2C)c1`, the “activation” value was inactive: -2.91%.

Take `COc1ccc(NC(=O)CN2C(=O)CSc3ccc(S(=O)(=O)N4CCCC4)cc32)cc1OC`: the “activation” value is inactive: -3.15%.

Take `CCOc1ccc(S(=O)(=O)N(CC(=O)NCCc2ccc(OC)c(OC)c2)c2ccccc2)cc1`: the “activation” value was inactive: -9.38%.

For the compound `Cc1ccccc1Cn1c(CN2CCC(C(=O)NCCN(C)C)CC2)cc2ccccc21`, the “activation” value was inactive: -29.1%.

Take `Cc1cccc(C)c1NC(=O)Cn1c(=O)n(CCC(=O)NCc2ccccc2Cl)c(=O)c2sccc21`: the “activation” value is inactive: -13.9%.

In the case of `COc1ccc(OC)c(CCNC(=O)c2c(C)oc3ncn(C)c(=O)c23)c1`, the “activation” value was inactive: -7.53%.

As for `Cc1ccc(C2CCN(C(=O)Nc3ccc(C)c(C)c3)C2)cc1` (centres undefined), the “activation” value is inactive: -5.63%.

Regarding `COc1cccc(C(=O)Nc2ccc(S(=O)(=O)N(Cc3ccccc3)c3ccccc3)cc2)c1`, the “activation” value is inactive: -20%.

For the compound `CCS(=O)(=O)N1CCc2cc(C(=O)NCCc3ccc(OC)c(OC)c3)ccc21`, the “activation” value was inactive: -0.723%.

Turning to `CC(C)Oc1ccc(CNC(=O)Cn2c(-c3cccs3)cc3ccccc32)cc1`, the “activation” value was inactive: -10.1%.

Turning to `Cc1ccc(C(=O)Nc2ccc3[nH]c(=O)c(=O)[nH]c3c2)cc1`, the “activation” value was inactive: -21.8%.

Take `Cc1cc(C)c(S(=O)(=O)NCCc2csc3nc(-c4ccc(Cl)cc4)nn23)c(C)c1`: the “activation” value was inactive: -8.85%.

Consider `CC(=O)c1ccc(N2CCN(C(=O)C3CCN(S(=O)(=O)c4c(C)noc4/C=C/c4ccccc4F)CC3)CC2)cc1`, for which the “activation” value was inactive: -11.3%.

For the compound `O=c1c2c3c(sc2n(Cc2ccc(F)cc2Cl)c(=O)n1-c1ccc(Cl)cc1)CCC3`, the “activation” value was inactive: -11.4%.

As for `Cc1ccc(C)c(N2CCN(c3nc4ccccc4c(=O)n3-c3ccccc3)CC2)c1`, the “activation” value was inactive: -3.11%.

On to `CC(=O)Nc1ccc(S(=O)(=O)NCCS(=O)(=O)N2CCN(c3ccccc3F)CC2)cc1`, for which the “activation” value is inactive: -16.8%.

For `COc1cccc(Nc2nc3ccc(C(=O)c4ccccc4)cc3n3c(C)nnc23)c1`, the “activation” value is inactive: -2.24%.

As to `COc1ccc(NC(=O)c2ccc(NC(=O)CCS(=O)(=O)c3cccs3)cc2)cc1`, the “activation” value is inactive: -8.03%.

In the case of `CCOc1ccc2c(c1)c(=O)c(S(=O)(=O)c1ccc(Cl)cc1)cn2Cc1ccccc1C`, the “activation” value is inactive: -7.61%.

Turning to `Cc1ccccc1OCc1ccc(-c2nc(C#N)c(N3CCC(C(N)=O)CC3)o2)o1`, the “activation” value was inactive: -11.3%.

For the compound `CCOc1ccc2cc(-c3nnc(Nc4ccc(C)cc4)s3)c(=O)oc2c1`, the “activation” value was inactive: -7.07%.

Take `CCOC(=O)c1c(S(=O)(=O)NCC(=O)N(C)c2ccc(C)cc2)c(C)n(C)c1C`: the “activation” value is inactive: 1.91%.

On to `Cc1ccccc1NS(=O)(=O)c1nnc(NC(=O)c2ccco2)s1`, for which the “activation” value is inactive: -12.1%.

Consider `Cc1ccccc1-c1nc(SCC(=O)N(C)c2ccccc2)c2c(=O)n(C)c(=O)n(C)c2n1`, for which the “activation” value was inactive: -14%.

In the case of `Cc1ccc(C)c(CN2C(=O)c3ccccc3S(=O)c3ccc(C(=O)NCCC4=CCCCC4)cc32)c1` (centres undefined), the “activation” value was inactive: -13%.

Take `COc1ccc(CCC(=O)NCCc2csc(-c3cccc(C)c3)n2)cc1`: the “activation” value was inactive: -15.5%.

On to `O=C(Nc1ccc(Cl)c(-c2nc3cc(Cl)ccc3o2)c1)c1cc2ccccc2o1`, for which the “activation” value was inactive: 0.178%.

For the compound `CCCNC(=O)c1cnc2c(-c3ccc(OCC)c(OCC)c3)c(C)nn2c1-c1ccccc1`, the “activation” value is inactive: -15%.

As to `COc1cc(NC(=O)CC(c2cccs2)N2Cc3ccccc3C2=O)cc(OC)c1OC` (centres undefined), the “activation” value was inactive: -25.2%.

`CCc1ccccc1N1C(=O)N(CC(=O)c2ccc(OC)cc2)c2ccccc2S1(=O)=O`: the “activation” value is inactive: -12.8%.

Turning to `CCc1cccc(NC(=O)Cn2nc3c4cc(F)ccc4n(Cc4cccc(C)c4)cc-3c2=O)c1`, the “activation” value was inactive: -8.27%.

As for `COC(=O)CCN(C(=O)C1CCN(S(=O)(=O)c2c(C)noc2/C=C/c2ccccc2F)CC1)c1ccccc1`, the “activation” value was inactive: -14%.

In the case of `CC(C)Oc1ccc(C(=O)Nc2nonc2-c2ccc(OC(C)C)cc2)cc1`, the “activation” value is inactive: -20.4%.

Consider `CCN(CCCNC(=O)Cn1ncc2c([nH]c3ccc(C)cc32)c1=O)Cc1ccccc1`, for which the “activation” value is inactive: -3.14%.

Take `COc1ccc(NC(=O)C(=O)NCc2ccco2)cc1`: the “activation” value was inactive: 2.07%.

In the case of `CC(C)n1c(=N)c(C(=O)NC2CCCCC2)cc2c(=O)n3ccccc3nc21`, the “activation” value is inactive: -17.1%.

Take `Clc1cccc(CSc2nnc(C3CCNCC3)o2)c1`: the “activation” value was inactive: 2.19%.

On to `CCSc1nn(CC(=O)Nc2cccc(Cl)c2)c(N)c1S(=O)(=O)c1ccc(OC)cc1`, for which the “activation” value was inactive: -38.9%.

Consider `COc1ccc(OC)c(-c2noc(N3CCN(c4cccc(C)c4C)CC3)n2)c1`, for which the “activation” value was inactive: -2.11%.

Consider `CC(=O)c1ccc(NC(=O)Cn2nc(C(F)(F)F)c3c2CCCC3)cc1`, for which the “activation” value was inactive: -14.3%.

On to `COc1cccc(CN(C(=O)c2cccc(C)c2)C2CCS(=O)(=O)C2)c1` (centres undefined), for which the “activation” value was inactive: -18.3%.

As for `Cc1ccc2oc(C(=O)Nc3sc4c(c3C(=O)NCc3cccnc3)CCCC4)cc(=O)c2c1`, the “activation” value was inactive: -14.5%.

With `CC(C)CC(=O)Nc1nnc(S(=O)(=O)N2CCc3ccccc32)s1`, the “activation” value is inactive: 7.16%.

For `Cc1ccc(-n2nc3c(=O)n(CCCC(=O)NC(C)c4ccccc4)nc(C)c3c2C)cc1` (centres undefined), the “activation” value was inactive: -4.61%.

Turning to `COc1ccccc1Cn1cc(C(=O)c2ccc(C)cc2)c(=O)c2cc(F)cc(F)c21`, the “activation” value is inactive: -16.1%.
